Source: patent US7250389B1, “Antifungal compound and process for producing the same” (Meiji Seika Kaisha, Ltd., priority 1998, dated 2007)

Test system: Saccharomyces cerevisiae IFO 0203
Assay: Evaluation test on antifungal activity (paper disk, inhibition zone diameter)
Conditions: 26° C., one to two days

Compound	inhibition zone diameter (amount of sample used 0.025 μg) [mm]	inhibition zone diameter (amount of sample used 0.05 μg) [mm]	inhibition zone diameter (amount of sample used 0.125 μg) [mm]	inhibition zone diameter (amount of sample used 0.25 μg) [mm]
CC(C)C(=O)O[C@H]1[C@H](C)OC(=O)[C@@H](NC(=O)c2cccnc2O)COC(=O)[C@@H]1Cc1ccccc1 [Ex. 4, (2R,3R,4S,7S)-7-(2-Hydroxynicotinylamino)-2-benzyl-5,9-dioxa-3-isobutyryloxy-4-methyl-1,6-cyclononanedione]	0	12	16	17
CC(C)C(=O)O[C@H]1[C@H](C)OC(=O)[C@@H](NC(=O)c2nc3ccccc3nc2O)COC(=O)[C@@H]1Cc1ccccc1 [Ex. 8, (2R,3R,4S,7S)-7-(3-Hydroxy-2-quinoxalinecarboxylamino)-2-benzyl-5,9-dioxa-3-isobutyryloxy-4-methyl-1,6-cyclononanedione]	14	18	20	24
COc1ccc(O)c(C(=O)N[C@H]2COC(=O)[C@H](Cc3ccccc3)[C@@H](OC(=O)C(C)C)[C@H](C)OC2=O)n1 [Ex. 17, (2R,3R,4S,7S)-7-(3-Hydroxy-6-methoxypicolinyl-amino)-2-benzyl-5,9-dioxa-3-isobutyryloxy-4-methyl-1,6-cyclononanedione]	16	19	24	27
COc1ccnc(C(=O)N[C@H]2COC(=O)[C@H](Cc3ccccc3)[C@@H](OC(=O)C(C)C)[C@H](C)OC2=O)c1OC(C)=O [Ex. 18, (2R,3R,4S,7S)-7-(3-Acetoxy-4-methoxypicolinylamino)-2-benzyl-5,9-dioxa-3-isobutyryloxy-4-methyl-1,6-cyclo-nonanedione]	10	12	14	18
COC(=O)CCC(=O)Oc1c(OC)ccnc1C(=O)N[C@H]1COC(=O)[C@H](Cc2ccccc2)[C@@H](OC(=O)C(C)C)[C@H](C)OC1=O [Ex. 21, (2R,3R,4S,7S)-7-(3-(3-Methoxycarbonylpropionyloxy)-4-methoxypicolinylamino)-2-benzyl-5,9-dioxa-3-isobutyryl-oxy-4-methyl-1,6-cyclononanedione]	15	19	22	25
COC(=O)CCCC(=O)Oc1c(OC)ccnc1C(=O)N[C@H]1COC(=O)[C@H](Cc2ccccc2)[C@@H](OC(=O)C(C)C)[C@H](C)OC1=O [Ex. 23, (2R,3R,4S,7S)-7-(3-(4-Methoxycarbonylbutyryloxy)-4-methoxypicolinylamino)-2-benzyl-5,9-dioxa-3-isobutyryl-oxy-4-methyl-1,6-cyclononanedione]	14	17	22	24
COc1ccnc(C(=O)N[C@H]2COC(=O)[C@H](Cc3ccccc3)[C@@H](OC(=O)C(C)C)[C@H](C)OC2=O)c1OC(=O)CCCC(=O)OCc1ccccc1 [Ex. 28, (2R,3R,4S,7S)-7-(3-(4-Benzyloxycarbonylbutyryloxy)-4-methoxypicolinylamino)-2-benzyl-5,9-dioxa-3-isobutyryl-oxy-4-methyl-1,6-cyclononanedione]	11	13	15	18
COc1ccnc(C(=O)N[C@H]2COC(=O)[C@H](Cc3ccccc3)[C@@H](OC(=O)C(C)C)[C@H](C)OC2=O)c1OC(=O)CCCCCC(=O)OCc1ccccc1 [Ex. 30, (2R,3R,4S,7S)-7-(3-(6-Benzyloxycarbonylhexanoyloxy)-4-methoxypicolinylamino)-2-benzyl-5,9-dioxa-3-isobutyryl-oxy-4-methyl-1,6-cyclononanedione]	8	10	15	18
COc1ccnc(C(=O)N[C@H]2COC(=O)[C@H](Cc3ccccc3)[C@@H](OC(=O)C(C)C)[C@H](C)OC2=O)c1OC(=O)CCCCCC(=O)O [Ex. 33, (2R,3R,4S,7S)-7-(3-(6-Carboxyhexanoyloxy)-4-methoxy-picolinylamino)-2-benzyl-5,9-dioxa-3-isobutyryloxy-4-methyl-1,6-cyclononanedione]	12	16	21	24
COc1ccnc(C(=O)N[C@H]2COC(=O)[C@H](Cc3ccccc3)[C@@H](OC(=O)C(C)C)[C@H](C)OC2=O)c1OC(=O)CCCCCCCCC(=O)O [Ex. 34, (2R,3R,4S,7S)-7-(3-(9-Carboxynonanoyloxy)-4-methoxy-picolinylamino)-2-benzyl-5,9-dioxa-3-isobutyryloxy-4-methyl-1,6-cyclononanedione]	12	15	20	23
COc1ccnc(C(=O)N[C@H]2COC(=O)[C@H](Cc3ccccc3)[C@@H](OC(=O)C(C)C)[C@H](C)OC2=O)c1OC(=O)[C@H](C)NC(=O)OCc1ccccc1 [Ex. 35, (2R,3R,4S,7S)-7-(3-(N-Carbobenzyloxy-L-alanyl)oxy-4-methoxypicolinylamino)-2-benzyl-5,9-dioxa-3-isobutyryl-oxy-4-methyl-1,6-cyclononanedione]	12	17	22	26
CC(C)C(=O)O[C@H]1[C@H](C)OC(=O)[C@@H](NC(=O)c2ccccc2O)COC(=O)[C@@H]1Cc1ccccc1 [Ex. 39, (2R,3R,4S,7S)-7-Salicylamino-2-benzyl-5,9-dioxa-3-isobutyryloxy-4-methyl-1,6-cyclononanedione]	8	8	11	12
CC(C)C(=O)O[C@H]1[C@H](C)OC(=O)[C@@H](NC(=O)c2cccc(NC=O)c2O)COC(=O)[C@@H]1Cc1ccccc1 [Ex. 42, (2R,3R,4S,7S)-7-(3-Formylaminosalicyl)amino-2-benzyl-5,9-dioxa-3-isobutyryloxy-4-methyl-1,6-cyclononanedione]	8	12	16	17
CC(C)C(=O)O[C@H]1[C@H](C)OC(=O)[C@@H](NC(=O)c2cccc(N(C)C)c2O)COC(=O)[C@@H]1Cc1ccccc1 [Ex. 49, (2R,3R,4S,7S)-7-(3-(N,N-Dimethylamino)salicyl)amino-2-benzyl-5,9-dioxa-3-isobutyryloxy-4-methyl-1,6-cyclo-nonanedione]	8	8	12	14
COc1ccnc(C(=O)N[C@H]2COC(=O)[C@H](Cc3ccc([N+](=O)[O-])cc3)[C@@H](OC(=O)C(C)C)[C@H](C)OC2=O)c1O [Ex. 53, (2R,3R,4S,7S)-7-(3-Hydroxy-4-methoxypicolinyl)amino-2-(4-nitrobenzyl)-5,9-dioxa-3-isobutyryloxy-4-methyl-1,6-cyclononanedione]	12	15	18	20
COc1ccnc(C(=O)N[C@H]2COC(=O)[C@H](Cc3ccc(N(C)C)cc3)[C@@H](OC(=O)C(C)C)[C@H](C)OC2=O)c1O [Ex. 56, (2R,3R,4S,7S)-7-(3-Hydroxy-4-methoxypicolinyl)amino-2-(4-(N,N-dimethylamino)benzyl)-5,9-dioxa-3-isobutyryloxy-4-methyl-1,6-cyclononanedione]	0	11	15	19
COc1ccnc(C(=O)N[C@H]2COC(=O)[C@H](Cc3ccccc3)[C@@H](OC(=O)C(C)C)[C@H](C)OC2=O)c1O [UK-2A, reference compound]	19	22	26	26
(2R,3R,4S,7S)-7-(3-Diphenyphosphoryloxy-4-methoxy-picolinylamino)-2-benzyl-5,9-dioxa-3-isobutyryloxy-4-methyl-1,6-cyclononanedione [Ex. 36]	12	13	18	19
